Results reported in the RNAGym collection of RNA variant scans (doi:10.7554/elife.90254).
Read counts are not given, so values of variants with three or more changes are uncertain.

B1: OR4K15 (parent)
chain: GUUAACGGUCAUAGGCCAUGGAAACUAGGAGCACCAUUUCGCUGCCAGUGAAGAAAUGAACAAAGAAAAUCUGGGCCAGGCAGGCAUCAAAAGAAAUAGUCUUGCGCUCAACCAGAAAGUCUGUAAUCAUUUUAAGGGUA

Variants of: B1
Assay: self-cleavage, relative activity (ratio to wild type); higher = more cleavage; in vitro, sequencing; the parent is a self-cleaving ribozyme

| Variant | self-cleavage |
| --- | --- |
| A22G A51U U102C | 1.29 |
| A54G A94G C107A A134C | 0.05 |
| U2C A68G U100C U120C | 1.03 |
| A18U A23G C71A U87A A98U U124C | 0.57 |
| A56G A98U U139C | 1.87 |
| U37C A51G A98G G136A | 1.12 |
| U43C A60G G74A | 0.21 |
| U12C A23G U37C U122C | 1.26 |
| C34A U70C A82U A96G U108C | 0.01 |
| A5G A36G A51U U97C | 0.76 |
| U37C A52G A111G | 0.04 |
| G8A U19A A30G G106U A110G | 0.01 |
| C40U A52G U122C U133C | 2.48 |
| U38C A94G A96G | 0.84 |
| A23C U39A A51U | 1.33 |
| U70G U100C G106A A111G U131C | 0 |
| A13G U39A U49C A98U | 1.22 |
| A5C U9A A11U C32A U72A A116G U132C | 0.08 |
| A60G A68G A91G U108C | 0.01 |
| A11G A68U G75C A86U C128U U130C | 0.11 |
| U26C A56G A82G U102C A125U | 0.86 |
| U37C U100C A117G | 2.2 |
| U43C A64G A126U | 2.49 |
| A47U A51U A64G A117G | 1.03 |

| Variant | self-cleavage |
| --- | --- |
| C85G A95G A110G | 0.15 |
| A22G A23G U49C A89U U131C | 1.62 |
| A24C A30G A59G | 1.41 |
| A66U A98G U130C | 0.26 |
| A30C A59G C113U U127A | 0.02 |
| A11G A56G A59U A68G A86G A92U A96G U97A | 1.34 |
| A33G A54U U57C A117G A129G U130C | 1.25 |
| A22G A69U G79U A95G | 0.02 |
| A22G A33G A62G A90U A98U U122C | 1.94 |
| U39C A68U U87C | 1.53 |
| A22G U43C U57G | 0.86 |
| U43C A56G A116G | 0.11 |
| U43C U130C U131C | 0.81 |
| A63G A66G A117G | 1.6 |
| U43A A51U A52U A82G A92G | 0.17 |
| U37C C109U U132C | 0.7 |
| A56C A59G A95G A110G C113U | 0.01 |
| U3C A55G A64G A78U A95G C121U A125U U131C | 0.63 |
| U100A A126G U130C | 0.22 |
| A52G U103C U127C | 1.01 |
| A52G U120C A126C | 0.66 |
| U43C A66G A82G | 0.39 |
| U43A U72A U130C | 0.14 |
| A51G A92G U97C A111G | 0 |

| Variant | self-cleavage |
| --- | --- |
| U12C A23G A98G | 0.3 |
| U19A A78U A82U | 0.14 |
| A36G A55G U103C A114U A135G | 0.05 |
| A30G U37C A90G A110G U122C | 0.02 |
| A52G A89G A92G A111U | 0.03 |
| A18G A24G U57G U102C A114G A134G | 0.61 |
| A23G A27U G73A C81U G83A | 0.32 |
| A24U U49A A52U C61A U70A A95G | 1.34 |
| A4G A30U C76U A111C | 0.07 |
| U38C A86U U87C A98G U122A | 0.08 |
| G83A U102C U133G | 0.18 |
| A52G A56G G73A A114U | 0.04 |
| A66U A91U A111U U120A | 0.13 |
| A86G A98G C113U | 0.01 |
| A66G U72A A125G | 0 |
| U57C A63G A110G | 0.16 |
| U26A A55G A63G A67G U132C | 1.24 |
| U38C A60G U130C | 1.84 |
| U72A C76U A94G | 0.16 |
| A51G A63G U130C | 1.46 |
| U2C U9C U72C U100C A116G | 0.82 |
| A18G A30U U38C U43C | 1.31 |
| A30G A52G A59G A66G A90U | 1.11 |
| A11G A23U A63G A67G U70G U103C U108C A118G | 0.02 |

| Variant | self-cleavage |
| --- | --- |
| A96G A129G U132C | 0.96 |
| A13G A18G A30G A56G U87C A94G | 0.58 |
| A5U U19C U103C A116G | 0.71 |
| U43C U87C U132C | 1.44 |
| A54G A68G A86U A95G | 0.49 |
| A51G A52G A94G | 1.21 |
| U12A A55G A96G | 2.12 |
| A27G A114G U124C | 0.24 |
| A24G A51G A60G | 0.6 |
| A5U A66G A89G A94G U130C A140G | 1.57 |
| A116G U122C A125G | 0.23 |
| C101U A110C A116G | 0.1 |
| U19A A24G A111G | 0.17 |
| A22G A30G A52G | 1.2 |
| A63G A78G A89U A129G | 0.13 |
| A51U A60G A111G A129U | 0 |
| U2A A56G C77U A116G U127A A135U | 1.94 |
| U9C A59G A89C U122C | 1.82 |
| A33U A52G U122A | 1.95 |
| A86G C109G U133C | 0.02 |
| A51U A89C A110G | 0.15 |
| A30U U57C A110U | 0.34 |
| U12G A13G U57C | 1.02 |
| U100C A118U A126G | 0.6 |

| Variant | self-cleavage |
| --- | --- |
| A4G U43A A59G A62G U100C | 0.89 |
| A11G A54G U127C U133C | 0.52 |
| A33G A62G A110G | 0.21 |
| U37C A78G A118G | 0.29 |
| U39C G50A A66G U102C G106A U108A C109A A117G | 0.01 |
| C16G U39A A64G U102A A116G U131A | 0.03 |
| C45U A82G A140G | 0.39 |
| A56G G73U A91G A96G A98G U100C U108C A110G A118G | 0 |
| A11G A55G U57C G93A A94G A95G U103C | 0.47 |
| A33G U72C U103C U108C | 0.01 |
| A22G U102C A114U | 0.3 |
| A36G A52U A90G A114U | 0.07 |
| A62G A86G U122A | 1.06 |
| A82U A126G U127C | 0.04 |
| C17U A24G A30G A67G | 0.89 |
| A94U U100C U122C | 1.91 |
| A55G U108C A116G | 0.01 |
| A86G A91G U97C U130C | 0.07 |
| A66U A94G A116G | 0.68 |
| U70C C121A U127C | 0.67 |
| A52U A60G A116U | 0.45 |
| A13G A24G A47U A62G | 1.25 |
| C40U A66G U108C U122C | 0.01 |
| A22G U124C U130C A135G | 0.05 |

| Variant | self-cleavage |
| --- | --- |
| A4G A11G A63G A78G | 0.31 |
| U39C C42A A68G U72A | 0.5 |
| C40U A117U A129G | 0.68 |
| A24G A54G U108C U127C | 0 |
| A24G U39A A55G | 0.63 |
| A111G C121U U124A | 0.01 |
| A23G A60G U87C U103C | 0.47 |
| A51G A95G U100C A110G | 0.25 |
| A52C A60U A68G | 1.49 |
| A5G A111C U132C | 0.05 |
| G14A A68G U108C | 0.01 |
| A5G A66G U72C | 0.23 |
| U38C A60G U70C | 0.94 |
| A60G A63G G119A | 1.99 |
| G44A A116G U120A U124G A129U | 0.07 |
| A62G U103A A111G A118G | 0 |
| U19C C109U A118G | 0.5 |
| A5G G21A G28C | 0.82 |
| A22G A54G A69U A86U | 1.89 |
| C6U A24U A54G A78U A89C A116G A140G | 0.08 |
| U57A U72C U103C U127C | 0.01 |
| A56G U108C U124A | 0 |
| A24G A68G U72A | 0.26 |
| A47U A86U A111G | 0.03 |

| Variant | self-cleavage |
| --- | --- |
| U9C U43C A118G | 1.47 |
| U43C A55G A67G A68U | 0.95 |
| U9A A11G A18G A67G A89G A94G A116G | 0.25 |
| U2C A67G A116U | 0.19 |
| U38A A52G A86G A92G U100C A111G | 0.02 |
| G20U C45U U49A | 1.59 |
| A59G A63G U108A G115A | 0.02 |
| A33C U39A C71A A94C | 0.7 |
| U38C A60G A63G U132C | 1.72 |
| A27G A56C U87C | 0.82 |
| A68G A90G G93U U122C | 1.62 |
| U70A U97C A110G A114U U124C | 0 |
| A63G C81U A86G | 0.16 |
| C17U A30G A51U A116G | 0.86 |
| C35U A51G U103C | 0.27 |
| U3C A67G U133C | 0.87 |
| A62G A68G A82G U100C A111C A114G | 0.02 |
| U49C A56G U57C A114G A118G U131C | 0.07 |
| U2A U70C G99U | 0 |
| A52G A86G A92G | 0.49 |
| U9C A30G A59G A68G U103C | 0.74 |
| A52G G73A A114U U120C | 0.02 |
| U9C A23U A96G U127C | 0.48 |
